{"source": "the supplement of paper PMC10338343", "note": "± gives the standard deviation. The entries are a selection whose mix differs from that of the whole data set.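 Also: 1 nM active piRISC with 0.1 nM target library at 33 °C single turnover.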"}
{"test_system": "MIWI (PIWIL1) piRISC loaded with L1MC piRNA (30 nt)", "assay": "pre-steady-state target cleavage rate (min^-1); MIWI and MILI are mouse PIWI proteins and EfPiwi is from a freshwater sponge; tags in brackets are library labels; higher = faster piRNA-guided slicing of the target", "details": "guide: L1MC piRNA 5'p-UAACUAAAUACUAUGCAAGCUGUAGGUCCU; auxiliary factor: 500 nM mouse GTSF1", "method_in_brief": "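In this Cleave-'n-Seq assay, uncleaved targets were sequenced and normalised to depth and to weakly complementary targets. They came from a transcribed, DNA-blocked target RNA library […] mixed with 1 nM active affinity-purified piRISC carrying one synthetic guide, with or without 500 nM GTSF1 partner protein, in HEPES–potassium acetate buffer at 33 °C for 0–8 or 0–960 min. After three trials were pooled and k3 was capped at 0.0001 min^-1, the pre-steady-state cleavage rate was obtained from a burst-and-steady-state fit.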"}
{"sequence": "UCCUCCUACAGCUUGCAUAGUAUUUAUGUUA", "pre-steady-state target cleavage rate": "0.387 ± 0.021"}
{"sequence": "UCCUGGAUCAGCUUGCAUAGUAAUUUGUUA", "pre-steady-state target cleavage rate": "0.302 ± 0.037"}
{"sequence": "UCCUGGAUGUGCUUGCAUUGUAUUUUGUUA", "pre-steady-state target cleavage rate": "0.0161 ± 0.0055"}
{"sequence": "UCCUGGAACACCUUGCAUACUAUUUAGUUA", "pre-steady-state target cleavage rate": "0.131 ± 0.021"}
{"sequence": "UCCUGGUACUGCUUGCAUACUAUUUAGUUA", "pre-steady-state target cleavage rate": "0.115 ± 0.027"}
{"sequence": "UCCUGGAUGAGCUUGCAUAGUGAUUUAGUUA", "pre-steady-state target cleavage rate": "0.00866 ± 0.0032"}
{"sequence": "UCCUCCUACAGCAUGCAUAGUAUUUUGUUA", "pre-steady-state target cleavage rate": "0.485 ± 0.045"}
{"sequence": "UCCUCGUACAGCUUGCAUAGUAAUUAGUUA", "pre-steady-state target cleavage rate": "0.952 ± 0.032"}
{"sequence": "UCGACCUACAGCUUGCAUAGUAUAAAGUUA", "pre-steady-state target cleavage rate": "0.574 ± 0.035"}
{"sequence": "UCGACCUACAGCUUGCAUAGAAUUUUGUUA", "pre-steady-state target cleavage rate": "0.494 ± 0.052"}
{"sequence": "UCCUGGUACAGCUUGCAUAGUAUUUAUUUA", "pre-steady-state target cleavage rate": "0.27 ± 0.056"}
{"sequence": "UCCUGGAUCAGCUUGCUUAGUAUUUAGUUA", "pre-steady-state target cleavage rate": "1.05 ± 0.06"}
{"sequence": "UCCUGCUACAGCUUGCAUAGUAUUAUGUUA", "pre-steady-state target cleavage rate": "0.452 ± 0.063"}
{"sequence": "AGGACCAAGAGCUUGCAUAGUAUUUAGUUA", "pre-steady-state target cleavage rate": "1.25 ± 0.061"}
{"sequence": "UCCUGCUACAGCUUGCAUAGUAUUUGAGUUA", "pre-steady-state target cleavage rate": "0.384 ± 0.033"}
{"sequence": "UCCUGGAACAGCUUGCAUAGUAUUUACUAA", "pre-steady-state target cleavage rate": "0.124 ± 0.022"}
{"sequence": "UCCUGGAUCUGCUUGCAUUGUAUUUAGUUA", "pre-steady-state target cleavage rate": "0.228 ± 0.037"}
{"sequence": "UCCACCUACAGCUUGCAUAGUAUUUUGAAA", "pre-steady-state target cleavage rate": "0.298 ± 0.034"}
{"sequence": "UCCUCCAACAGCUAGCAUAGUAUUUAGUUA", "pre-steady-state target cleavage rate": "0.684 ± 0.029"}
{"sequence": "UCGACCUUCAGCUUGCAUAGUAUUUAGAUA", "pre-steady-state target cleavage rate": "0.481 ± 0.038"}
{"sequence": "AGGACCUACAGCUUGCAUAGUUUUUAGAUA", "pre-steady-state target cleavage rate": "0.259 ± 0.034"}
{"sequence": "UCCACCUACACUUGCAUAGUAUUUAGUUA", "pre-steady-state target cleavage rate": "0.893 ± 0.031"}
{"sequence": "UGGACCUUCAGCUUGCUUAGUAUUUAGUUA", "pre-steady-state target cleavage rate": "1.49 ± 0.09"}
{"sequence": "UCCUGCUACAGCUUGGAUAGUAUAUAGUUA", "pre-steady-state target cleavage rate": "0.448 ± 0.041"}
{"sequence": "UCCUGCUACAGCUUGCAAAGUAUUUAGUAA", "pre-steady-state target cleavage rate": "0.378 ± 0.039"}
{"sequence": "UGGACCUACAGCUUGCAUUGUAUUUACUUA", "pre-steady-state target cleavage rate": "0.403 ± 0.032"}
{"sequence": "UCCUGCUACAGCUUGCAUAGUACUUAGUUA", "pre-steady-state target cleavage rate": "0.573 ± 0.034"}
{"sequence": "UCCUGGAUGAGCUUGCAUAGUAUAUUGUUA", "pre-steady-state target cleavage rate": "0.165 ± 0.021"}
{"sequence": "UGGACCUACAGCUUGCAUAGUAAUUACUUA", "pre-steady-state target cleavage rate": "0.123 ± 0.023"}
{"sequence": "UCGACCUAGAGGUUGCAUAGUAUUUAGUUA", "pre-steady-state target cleavage rate": "0.822 ± 0.11"}
{"sequence": "UGGACCUACAGCAUGCAUAGUUUUUAGUUA", "pre-steady-state target cleavage rate": "0.43 ± 0.026"}
{"sequence": "UGGACCUACAGCUUGCUUAGUAUUUAGUUA", "pre-steady-state target cleavage rate": "1.56 ± 0.094"}
{"sequence": "UCCUGGAACACCUUGCAUAGUAUUAAGUUA", "pre-steady-state target cleavage rate": "0.293 ± 0.045"}
{"sequence": "UGGACCUACACCUUGCAUAGUUUUUAGUUA", "pre-steady-state target cleavage rate": "0.245 ± 0.019"}
{"sequence": "UCCAGCUACAGCUUGCAUAGAAUUUAGUUA", "pre-steady-state target cleavage rate": "0.377 ± 0.031"}
{"sequence": "UCGACCCACAGCUUGCAUAGUAUUUAGUUA", "pre-steady-state target cleavage rate": "1.19 ± 0.044"}
{"sequence": "UCCUGGAUGAGCUUGCAUAGUAUUUAGUGUA", "pre-steady-state target cleavage rate": "0.749 ± 0.082"}
{"sequence": "UGGACCUACAGCUUGCAUUGUAUUAAGUUA", "pre-steady-state target cleavage rate": "0.575 ± 0.04"}
{"sequence": "UCGACCUACAGGAAGCAUAGUAUUUAGUAA", "pre-steady-state target cleavage rate": "0.711 ± 0.065"}
{"sequence": "UCCUGGAUCAGCUUGCAUCGUAUUUAGUUA", "pre-steady-state target cleavage rate": "0.327 ± 0.02"}
